Experimental data published in the supplement of paper PMC10369915.
The list shows a part of the results. No stated cut-off is given here; in the data, active = 3.2 or more and inactive = the rest. The signal is at background level for most entries.

molecular target: SHP2 C-SH2 domain E139D; test: enrichment score (SH2-bound / input frequency) (ratio); bacterial display of known human phosphotyrosine sites (pTyr-Var adds point mutants) read by sequencing; higher = stronger binding; tyrosines were phosphorylated by kinases first; conditions: peptide library: pTyr-Var
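Further: displayed peptides selected on beads carrying the immobilized SH2 domain, with library peptides lacking any tyrosine serving as negative controls.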

Enrichment score, inactive:
QMVDMYASSFM [AVPR2_Y124_G122D_YF] 0.872
QMVRMYASSYM [AVPR2_Y124_G122R] 0.561
QMVRMYASSFM [AVPR2_Y124_G122R_YF] 0.479
QMVGMYAFSYM [AVPR2_Y124_S126F] 0.82
KFEDVYVRICL [B3GALNT1_Y269_G271R] 0.772
DLEKTYNTYRS [B4GALNT2_Y538_A533D] 0.8
DLEKTYNTFRS [B4GALNT2_Y538_A533D_YF] 0.86
VSRGRYRPEEC [B4GALT4_Y113_Q116E] 0.241
APIEDYGGGGG [B4GALT6_Y382] 1.12
RREWYYEVIIA [BACE1_Y260_V265A] 0.275
RREWFYEVIIV [BACE1_Y260_YF] 0.544
HPFHVYPQPGM [BAG3_Y114] 1.84
HPFHVYSQPGM [BAG3_Y114_P115S] 1.69
KTDKKYLMIEE [BAG3_Y451] 0.792
KTDKKYLMIKE [BAG3_Y451_E455K] 0.889
LMIEEYLTKEL [BAG3_Y457] 1.22
LMIEEYLTKEP [BAG3_Y457_L462P] 0.816
QLRPGYFPIPV [BAG3_Y93_I94F] 1.06
TAGEPYHDIRF [BAP1_Y223] 0.633

molecular target: SHP2 C-SH2 domain wild-type; test: as above; conditions: peptide library: pTyr-Var

Enrichment score, inactive:
QMVDMYASSFM [AVPR2_Y124_G122D_YF] 0.753
QMVRMYASSYM [AVPR2_Y124_G122R] 0.506
QMVRMYASSFM [AVPR2_Y124_G122R_YF] 0.583
QMVGMYAFSYM [AVPR2_Y124_S126F] 0.845
KFEDVYVRICL [B3GALNT1_Y269_G271R] 1.16
DLEKTYNTYRS [B4GALNT2_Y538_A533D] 0.602
DLEKTYNTFRS [B4GALNT2_Y538_A533D_YF] 1.08
VSRGRYRPEEC [B4GALT4_Y113_Q116E] 0.234
APIEDYGGGGG [B4GALT6_Y382] 0.541
RREWYYEVIIA [BACE1_Y260_V265A] 0.217
RREWFYEVIIV [BACE1_Y260_YF] 0.327
HPFHVYPQPGM [BAG3_Y114] 1.43
HPFHVYSQPGM [BAG3_Y114_P115S] 1.1
KTDKKYLMIEE [BAG3_Y451] 0.71
KTDKKYLMIKE [BAG3_Y451_E455K] 0.926
LMIEEYLTKEL [BAG3_Y457] 0.779
LMIEEYLTKEP [BAG3_Y457_L462P] 0.843
QLRPGYFPIPV [BAG3_Y93_I94F] 0.947
TAGEPYHDIRF [BAP1_Y223] 0.75

molecular target: SHP2 N-SH2 domain L43F; test: as above; conditions: peptide library: pTyr-Var

Enrichment score, inactive:
QMVDMYASSFM [AVPR2_Y124_G122D_YF] 1
QMVRMYASSYM [AVPR2_Y124_G122R] 0.606
QMVRMYASSFM [AVPR2_Y124_G122R_YF] 0.642
QMVGMYAFSYM [AVPR2_Y124_S126F] 1.03
KFEDVYVRICL [B3GALNT1_Y269_G271R] 0.892
DLEKTYNTYRS [B4GALNT2_Y538_A533D] 0.638
DLEKTYNTFRS [B4GALNT2_Y538_A533D_YF] 1.21
VSRGRYRPEEC [B4GALT4_Y113_Q116E] 0.256
APIEDYGGGGG [B4GALT6_Y382] 0.697
RREWYYEVIIA [BACE1_Y260_V265A] 0.286
RREWFYEVIIV [BACE1_Y260_YF] 0.364
HPFHVYPQPGM [BAG3_Y114] 1.76
HPFHVYSQPGM [BAG3_Y114_P115S] 1.66
KTDKKYLMIEE [BAG3_Y451] 0.691
KTDKKYLMIKE [BAG3_Y451_E455K] 0.941
LMIEEYLTKEL [BAG3_Y457] 1.04
LMIEEYLTKEP [BAG3_Y457_L462P] 0.686
QLRPGYFPIPV [BAG3_Y93_I94F] 0.939
TAGEPYHDIRF [BAP1_Y223] 0.795

molecular target: SHP2 N-SH2 domain T42A; test: as above; conditions: peptide library: pTyr-Var

Enrichment score, inactive:
QMVDMYASSFM [AVPR2_Y124_G122D_YF] 0.966
QMVRMYASSYM [AVPR2_Y124_G122R] 0.685
QMVRMYASSFM [AVPR2_Y124_G122R_YF] 0.515
QMVGMYAFSYM [AVPR2_Y124_S126F] 0.647
KFEDVYVRICL [B3GALNT1_Y269_G271R] 0.692
DLEKTYNTYRS [B4GALNT2_Y538_A533D] 0.529
DLEKTYNTFRS [B4GALNT2_Y538_A533D_YF] 1.07
VSRGRYRPEEC [B4GALT4_Y113_Q116E] 0.204
APIEDYGGGGG [B4GALT6_Y382] 0.433
RREWYYEVIIA [BACE1_Y260_V265A] 0.425
RREWFYEVIIV [BACE1_Y260_YF] 0.242
HPFHVYPQPGM [BAG3_Y114] 1.4
HPFHVYSQPGM [BAG3_Y114_P115S] 1.61
KTDKKYLMIEE [BAG3_Y451] 0.633
KTDKKYLMIKE [BAG3_Y451_E455K] 0.685
LMIEEYLTKEL [BAG3_Y457] 1.08
LMIEEYLTKEP [BAG3_Y457_L462P] 0.524
QLRPGYFPIPV [BAG3_Y93_I94F] 0.886
TAGEPYHDIRF [BAP1_Y223] 0.842

molecular target: SHP2 N-SH2 domain T52S; test: as above; conditions: peptide library: pTyr-Var

Enrichment score, inactive:
QMVDMYASSFM [AVPR2_Y124_G122D_YF] 1.06
QMVRMYASSYM [AVPR2_Y124_G122R] 0.466
QMVRMYASSFM [AVPR2_Y124_G122R_YF] 0.447
QMVGMYAFSYM [AVPR2_Y124_S126F] 0.659
KFEDVYVRICL [B3GALNT1_Y269_G271R] 0.615
DLEKTYNTYRS [B4GALNT2_Y538_A533D] 0.606
DLEKTYNTFRS [B4GALNT2_Y538_A533D_YF] 1.14
VSRGRYRPEEC [B4GALT4_Y113_Q116E] 0.219
APIEDYGGGGG [B4GALT6_Y382] 0.627
RREWYYEVIIA [BACE1_Y260_V265A] 0.305
RREWFYEVIIV [BACE1_Y260_YF] 0.329
HPFHVYPQPGM [BAG3_Y114] 1.82
HPFHVYSQPGM [BAG3_Y114_P115S] 1.42
KTDKKYLMIEE [BAG3_Y451] 0.698
KTDKKYLMIKE [BAG3_Y451_E455K] 0.781
LMIEEYLTKEL [BAG3_Y457] 1.03
LMIEEYLTKEP [BAG3_Y457_L462P] 0.567
QLRPGYFPIPV [BAG3_Y93_I94F] 0.948
TAGEPYHDIRF [BAP1_Y223] 0.43

molecular target: SHP2 N-SH2 domain wild-type; test: as above; conditions: peptide library: pTyr-Var

Enrichment score, inactive:
QMVDMYASSFM [AVPR2_Y124_G122D_YF] 1.04
QMVRMYASSYM [AVPR2_Y124_G122R] 0.497
QMVRMYASSFM [AVPR2_Y124_G122R_YF] 0.605
QMVGMYAFSYM [AVPR2_Y124_S126F] 1.22
KFEDVYVRICL [B3GALNT1_Y269_G271R] 0.947
DLEKTYNTYRS [B4GALNT2_Y538_A533D] 0.867
DLEKTYNTFRS [B4GALNT2_Y538_A533D_YF] 1.23
VSRGRYRPEEC [B4GALT4_Y113_Q116E] 0.228
APIEDYGGGGG [B4GALT6_Y382] 0.661
RREWYYEVIIA [BACE1_Y260_V265A] 0.154
RREWFYEVIIV [BACE1_Y260_YF] 0.274
HPFHVYPQPGM [BAG3_Y114] 1.76
HPFHVYSQPGM [BAG3_Y114_P115S] 1.14
KTDKKYLMIEE [BAG3_Y451] 0.723
KTDKKYLMIKE [BAG3_Y451_E455K] 0.909
LMIEEYLTKEL [BAG3_Y457] 0.966
LMIEEYLTKEP [BAG3_Y457_L462P] 0.636
QLRPGYFPIPV [BAG3_Y93_I94F] 0.975
TAGEPYHDIRF [BAP1_Y223] 0.643
